The campaign covered roughly 330,000 compounds. About 4,200 (1.3%) were called active. The shares of active, inactive and inconclusive entries below differ from those in the screen. Calls follow the shape of the dose curve; as a rule, active = well fitted activation curve with a large enough effect; inconclusive = small, poorly fitted or top-dose-only effect; inactive = no such curve, though single readings can be large or run the other way. Where the call is inconclusive, the potency comes from a doubtful curve fit.
Test: qHTS screen for small molecules that induce genotoxicity in human embryonic kidney (HEK293T) cells expressing luciferase-tagged ELG1; also: nearly all actives have a fitted effect of over 60% in size; as to activity change, positive = activation: % of control where 0% means no effect
Details: HEK293T ELG1-luciferase reporter, luminescence, 16 h; series mostly up to 46 µM; activity change, positive = activation: at the top concentration
How it was run: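 Quantitative HTS format in 1536-well plates. HEK293T ELG1-luciferase reporter cells receive test compound and are incubated 16 hr at 37 °C, 5% CO2; ONE-Glo added, 30 min room temperature, then luminescence read.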
Potency is read from the fitted curve at half-maximal effect; tags tell the direction and shape of the fitted curve.

Compound	Potency	activity change, positive = activation
O=C(Nc1ccc2c(c1)OCO2)c1ccc(Cl)nc1	inconclusive: 18.4 µM [activator, single point]	–
COC(=O)c1cc(Cl)c(NC(=O)/C=C/c2ccc(Cl)cc2Cl)cc1OC	inconclusive: 18.4 µM [activator, partial curve, poor fit]	–
O=C(c1ccncc1)N1N=C(c2ccc(Cl)cc2)CC1c1ccccc1O (stereo unspecified)	inconclusive: 6.51 µM [activator, partial curve]	–
CCCCC(=O)Nc1ccc(C(=O)NNC(=O)c2ccc(C)c(Br)c2)cc1	inconclusive: 10.3 µM [activator, partial curve, poor fit]	–
COc1ccccc1NC(=O)c1ccc2c(c1)C(=O)N(Cc1ccco1)C2=O	inconclusive: 29.1 µM [activator, partial curve, poor fit]	–
Cc1cc(C)c2c(=O)[nH]c(=O)n(Cc3ccccc3)c2n1	inconclusive: 23.1 µM [activator, single point]	–
NC(=O)NCCCC(=O)O	inconclusive: 25.9 µM [activator, single point]	–
Cc1ccc(C(=O)Nc2ccc(C(F)(F)F)n(C)c2=O)cc1	inconclusive: 2.59 µM [activator, full curve]	–
COc1cc2c(cc1OC)CN(C(=O)C1CCN(S(=O)(=O)c3ccccc3F)CC1)CC2	–	inactive: -0.541%
CC(=O)N1c2ccc(N=Cc3cc(Br)cc(Br)c3O)cc2CC1C (stereo unspecified)	–	inactive: 2.25%
COc1ccccc1C(=O)Nc1nc2ccccc2s1	inconclusive: 0.0651 µM [activator, full curve, poor fit]	–
N/C(=N\OC(=O)c1ccccc1Br)c1cccc([N+](=O)[O-])c1	active: 5.8 µM	–
CC(C)Nc1nc(NC(C)C)nc(OCCOC(=O)Nc2ccccc2)n1	inconclusive: 5.01 µM [activator, partial curve]	–
O=C(NCCc1ccccc1)c1ccccc1SCC(=O)N1CCCC1	inconclusive: 11.6 µM [activator, partial curve, poor fit]	–
COc1cccc2c(Nc3ccccc3C)cc(C)nc12	–	inactive: -11.9%
OCC1(CCc2ccccc2)CCN(Cc2cc(F)ccc2-n2cccn2)CC1	–	inactive: -3.14%
CCCC1=C(C(=O)OCC)C(c2ccc(NC(C)=O)cc2)NC(=O)N1 (stereo unspecified)	inconclusive: 20.6 µM [activator, partial curve, poor fit]	–
Fc1ccc(CSc2ccc(-c3ccco3)nn2)cc1	inconclusive: 9.2 µM [activator, partial curve]	–
N/C(=N\OC(=O)c1ccc(Cl)cc1Cl)c1ccccn1	active: 0.259 µM	–
CN(C)c1ccc(/C=N/NC(=O)c2ccnn2C)cc1	inconclusive: 5.17 µM [activator, partial curve]	–
CC(=O)N1N=C(c2cccs2)CC1c1cc2cc(C)ccc2nc1Cl (stereo unspecified)	–	inactive: 0.587%
COc1cccc(NC(=O)COc2ccccc2C(N)=O)c1	active: 7.94 µM	–
CCCC(=O)N(C)c1nnc(-c2ccc(OC)cc2)s1	inconclusive: 10 µM [activator, partial curve, poor fit]	–
Cc1ccc(Nc2nnc(SCC(=O)NCCN3C(=O)CSC3=O)s2)cc1C	inconclusive: 18.4 µM [activator, partial curve, poor fit]	–
Cc1ccnc(NC(=O)COc2ccccc2[N+](=O)[O-])c1	inconclusive: 1.64 µM [activator, partial curve]	–
c1ccc(NC2=Nc3ccccc3CS2)cc1	inconclusive: 9.2 µM [activator, partial curve]	–

Compound	Potency	activity change, positive = activation
Nc1nc2c(Cl)cc(Cl)cc2s1	inconclusive: 23.1 µM [activator, partial curve, poor fit]	–
NNC(=O)C(Cc1c[nH]c2ccccc12)NC(=O)c1ccccc1 (stereo unspecified)	–	inactive: -0.853%
Cc1ccc(/C=N/N=C/c2ccc(C)cc2)cc1	active: 20.6 µM	–
CCOC(=O)c1cn[nH]c1NC(=S)Nc1ccc(Cl)cc1	inconclusive: 0.73 µM [activator, full curve]	–
Cc1sc2ncn(CC(=O)NCC3COc4ccccc4O3)c(=O)c2c1S(=O)(=O)N1CCCCC1 (stereo unspecified)	inconclusive: 32.6 µM [activator, partial curve, poor fit]	–
O=C(/C=C\Nc1cccc(F)c1)c1cccs1	inconclusive: 1.84 µM [activator, full curve]	–
Cc1ccc(NCC(=O)c2ccc(C)cc2)cc1	inconclusive: 16.4 µM [activator, single point]	–
Cc1cc(=O)[nH]c(SCC(=O)Nc2nc3ccccc3s2)n1	–	inactive: -0.0581%
O=C(CNC(=O)c1cccs1)N/N=C/c1c(F)cccc1Cl	inconclusive: 16.4 µM [activator, partial curve, poor fit]	–
COc1ccc(NS(=O)(=O)c2cccc(C(=O)NN=C(C)c3ccco3)c2)cc1	–	inactive: -0.632%
CN(C(=O)c1cc2c(=O)n3ccccc3nc2n1C)C1CCCCC1	active: 4.61 µM	–
Cc1cccc(-c2cc3nc(C)cc(C)n3n2)c1	inconclusive: 8.2 µM [activator, partial curve]	–
Cc1cnc(NC(=O)CSc2ccc(Cl)cc2)s1	–	inactive: -2.33%
COc1ccc(C)cc1NC(=O)CN(C)C1CCCCC1	–	inactive: -1.85%
Cc1ccc(-c2nnc(SCC(=O)N3CCCC3)o2)cc1C	inconclusive: 20.6 µM [activator, single point]	–
CN(C)CCCOC(=O)c1sc2ccccc2c1Cl	–	inactive: 4%
Cc1cc(=O)[nH]c2ccc(S(=O)(=O)NC3CCCCC3)cc12	active: 20.6 µM	–
O=C(NCc1cccs1)C(=O)c1c[nH]c2ccccc12	inconclusive: 20.6 µM [activator, partial curve, poor fit]	–
CCNC(=O)COc1ccc(Br)cc1Cl	inconclusive: 16.4 µM [activator, single point]	–
O=C(Cn1cnc2c(cnn2-c2ccccc2)c1=O)N1CCCc2ccccc21	–	inactive: -11.4%
Cc1ccc(NC(=O)c2cnccn2)c(Br)c1	inconclusive: 23.1 µM [activator, single point]	–
c1cc2c(cc1NC1CCCCCC1)OCO2	–	inactive: 3.57%
Cc1ccc(NC(=O)c2ccc(Oc3ncccn3)cc2)cc1	inconclusive: 25.9 µM [activator, single point]	–
Cn1c(=O)c(/C=C/c2ccccc2)nc2ccccc21	inconclusive: 3.66 µM [activator, full curve, poor fit]	–
CC(C)CN(C(=O)CSc1n[nH]c(-c2cccs2)n1)C1CCS(=O)(=O)C1 (stereo unspecified)	–	inactive: 0.611%
CCn1c(=O)cc(SCC(=O)Nc2ccc(C)cn2)c2ccccc21	inconclusive: 6.51 µM [activator, single point]	–

Compound	Potency	activity change, positive = activation
COC(=O)c1cc(S(=O)(=O)NCCc2ccc(SC)cc2)c[nH]1	–	inactive: -8.8%
Cc1ccc(CN2Cc3cccc4c3[C@@H](CC2=O)[C@H](O)[C@H](O)C4)cc1	–	inactive: -0.0346%
CC(=O)c1ccccc1NC(=O)c1ccc(N2CCCC2=O)cc1	inconclusive: 9.2 µM [activator, partial curve]	–
N/C(=N\OCc1ccccc1)c1nonc1N	inconclusive: 20.6 µM [activator, partial curve]	–
Cc1ccc(-n2c(C)cc(/C=N/NC(=O)c3ccncc3)c2C)c(C)c1	–	inactive: -4.39%
CCOc1cc(/C=N/Nc2ccccc2Cl)ccc1OCC(=O)O	inconclusive: 23.1 µM [activator, partial curve, poor fit]	–
CCCCc1nc2cc(C(=O)NCCc3cnn(C)c3)ccc2o1	inconclusive: 11.6 µM [activator, partial curve, poor fit]	–
Cc1ccc(CNC(=O)c2ccc(Cn3cc(-c4ccc(C)cc4)nc3-c3ccncc3)cc2)cc1	inconclusive: 10.3 µM [activator, partial curve, poor fit]	–
O=C(CCNC(=O)c1ccccc1Cl)Nc1ccc(Cl)c(C(F)(F)F)c1	–	inactive: 5.38%
COc1ccc(/C=C/C(=O)OCC(=O)Nc2ccc(Cl)c(S(=O)(=O)N(C)C)c2)cc1OC	–	inactive: 8.54%
Cc1ccc(C)c(OC(=O)c2cccnc2)c1	–	inactive: -0.72%
CCCCOc1ccc(CSC2=NCCN2)cc1[N+](=O)[O-]	–	inactive: 0.78%
COc1ccc2c(c1)CCc1c(C(=O)NCc3ccco3)noc1-2	inconclusive: 16.4 µM [activator, partial curve, poor fit]	–
Cc1cccc(Cc2nnc(CCC(=O)N(C)CCc3ccccc3)o2)c1	active: 18.3 µM	–
c1ccc(-c2nc(-c3ccccn3)no2)cc1	inconclusive: 0.651 µM [activator, partial curve]	–
Cc1ccccc1Nc1nnc(SCC2CCCCO2)s1 (stereo unspecified)	inconclusive: 2.31 µM [activator, full curve]	–
Clc1ccc(-n2nnnc2-c2cnc(-c3ccncc3)nc2-c2cccs2)cc1	–	inactive: -4.02%
O=C(COC(=O)CN1C(=O)C(=O)c2ccccc21)OCN1C(=O)c2ccccc2C1=O	–	inactive: 0.46%
CCC(=O)n1nc(-c2ccc(Cl)cc2)nc1NCc1ccccc1	active: 20.6 µM	–
Cc1cccc(CNC(=O)c2ccccc2N)c1	inconclusive: 32.6 µM [activator, partial curve, poor fit]	–
COC(=O)Cc1[nH]nc2c1C(c1ccc(O)c(OC)c1)C(C#N)=C(N)O2 (stereo unspecified)	–	inactive: -0.276%
CCCCCc1nnc(NC(=O)C2CCCO2)s1 (stereo unspecified)	active: 13 µM	–
CC(C)NC(=O)COc1coc(CN2CCN(c3ccccc3F)CC2)cc1=O	–	inactive: -0.622% [at 9.26 µM]
O=C(Nc1ccn(Cc2ccccc2F)n1)c1ccc(COc2cccc(Br)c2)cc1	inconclusive: 1.84 µM [activator, partial curve]	–
